# Measurements taken from the supplement of paper PMC8728848.
# This is one part of the list.
# B1: CaSRK1 (Capsicum annuum) (protein)
# chain: MALCKIFPFAFILLSCSCYLISGQRFDYPTANLSTTWINSVSAPHSIDYTDGSRIRAILLRGTFGPRYACGFYCNGNCESYLFAIFIVQTNSASQITSPAIGFPQVVWSANRNNPVKINSTLQLTAEGDLVLRDADGTLAWSTNTAGKSVAGLSLTDEGNLALFDSKNATVWQSFDHPTDALVPGQKLVPGMKLTASVSRTNWTAGGLFALSAIDNGLVAFVESNPPQKYFEASVGGSNTSGGSNYVKYLNGSLTLFTHSADTTELILISITPASSAQYMKLESNGHLKVYEWTSRGWREVDDLLTGFRGECNYPTVCGRYGICTMGQCSCPTSSSSRTYFRPIDVRRPSLGCSEVTKLTCQNTKKHSPLEVEDVDYFAFKAGISDTDLNTCKRACLEKCSCKAAFFRSGLNSSRTRGDCYLPTEIFSIMNNEKDRTRYDSVAFIKVQV
# Tests used:
# Experiment in all cases: glycan array binding signal (z-score within array); higher = stronger binding
# Conditions in all cases: glycan notation: IUPAC condensed, linker removed
# GlcA(b1-3)Gal = target: GlcA(b1-3)Gal
# Summary of the method: (§1)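 Columns mapping to the same glycan were averaged after glycan names were converted to IUPAC-condensed notation. The data come from 3228 arrays in the Consortium for Functional Glycomics database, limited to those with an available protein sequence. Binding is reported as a within-array Z-score averaged across arrays of one protein sequence and across linkers.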
# GlcA(b1-3)GlcNAc = target: GlcA(b1-3)GlcNAc
# Summary of the method: as §1
# GlcA(b1-6)Gal = target: GlcA(b1-6)Gal
# Summary of the method: as §1
# [1] = target: GlcA3S(b1-3)Gal(b1-4)GlcNAc(b1-2)Man
# Summary of the method: as §1
# [2] = target: GlcA3S(b1-3)Gal(b1-4)GlcNAc(b1-3)Gal(b1-4)Glc
# Summary of the method: as §1
# [3] = target: GlcNAc(a1-3)Gal(b1-4)GlcNAc
# Summary of the method: as §1
# [4] = target: GlcNAc(a1-4)Gal(b1-3)GlcNAc
# Summary of the method: as §1
# [5] = target: GlcNAc(a1-4)Gal(b1-4)GalNAc
# Summary of the method: as §1
# [6] = target: GlcNAc(a1-4)Gal(b1-4)GlcNAc
# Summary of the method: as §1
# [7] = target: GlcNAc(a1-4)Gal(b1-4)GlcNAc(b1-3)Gal(b1-4)Glc
# Summary of the method: as §1
# [8] = target: GlcNAc(a1-4)Gal(b1-4)GlcNAc(b1-3)Gal(b1-4)GlcNAc
# Summary of the method: as §1
# [9] = target: GlcNAc(a1-4)Gal(b1-4)GlcNAc(b1-3)Gal(b1-4)GlcNAc(b1-3)Gal(b1-4)GlcNAc
# Summary of the method: as §1
# [10] = target: GlcNAc(a1-4)Gal(b1-4)GlcNAc(b1-3)Gal(b1-4)[Fuc(a1-3)]GlcNAc(b1-3)Gal(b1-4)[Fuc(a1-3)]GlcNAc
# Summary of the method: as §1
# [11] = target: GlcNAc(a1-6)Gal(b1-4)GlcNAc
# Summary of the method: as §1
# [12] = target: GlcNAc(b1-2)Gal(b1-3)GalNAc
# Summary of the method: as §1
# [13] = target: GlcNAc(b1-2)Man(a1-3)[GlcNAc(b1-2)Man(a1-6)]Man(b1-4)GlcNAc(b1-4)GlcNAc
# Summary of the method: as §1
# [14] = target: GlcNAc(b1-2)Man(a1-3)[GlcNAc(b1-2)Man(a1-6)]Man(b1-4)GlcNAc(b1-4)[Fuc(a1-6)]GlcNAc
# Summary of the method: as §1
# [15] = target: GlcNAc(b1-2)Man(a1-3)[GlcNAc(b1-4)][GlcNAc(b1-2)Man(a1-6)]Man(b1-4)GlcNAc(b1-4)GlcNAc
# Summary of the method: as §1
# [16] = target: GlcNAc(b1-2)Man(a1-3)[GlcNAc(b1-4)][GlcNAc(b1-2)Man(a1-6)]Man(b1-4)GlcNAc(b1-4)[Fuc(a1-6)]GlcNAc
# Summary of the method: as §1
# [17] = target: GlcNAc(b1-2)[GlcNAc(b1-4)]Man(a1-3)[GlcNAc(b1-2)Man(a1-6)]Man(b1-4)GlcNAc(b1-4)GlcNAc
# Summary of the method: as §1
# [18] = target: GlcNAc(b1-2)[GlcNAc(b1-4)]Man(a1-3)[GlcNAc(b1-4)][GlcNAc(b1-2)Man(a1-6)]Man(b1-4)GlcNAc(b1-4)GlcNAc
# Summary of the method: as §1
# [19] = target: GlcNAc(b1-2)[GlcNAc(b1-4)]Man(a1-3)[GlcNAc(b1-4)][GlcNAc(b1-2)[GlcNAc(b1-6)]Man(a1-6)]Man(b1-4)GlcNAc(b1-4)GlcNAc
# Summary of the method: as §1
# [20] = target: GlcNAc(b1-2)[GlcNAc(b1-4)]Man(a1-3)[GlcNAc(b1-4)][GlcNAc(b1-2)[GlcNAc(b1-6)]Man(a1-6)]Man(b1-4)GlcNAc(b1-4)[Fuc(a1-6)]GlcNAc
# Summary of the method: as §1
# [21] = target: GlcNAc(b1-2)[GlcNAc(b1-6)]Man(a1-6)[GlcNAc(b1-2)Man(a1-3)]Man(b1-4)GlcNAc(b1-4)GlcNAc
# Summary of the method: as §1
# [22] = target: GlcNAc(b1-2)[GlcNAc(b1-6)]Man(a1-6)[GlcNAc(b1-2)Man(a1-3)]Man(b1-4)GlcNAc(b1-4)[Fuc(a1-6)]GlcNAc
# Summary of the method: as §1
# [23] = target: GlcNAc(b1-2)[GlcNAc(b1-6)]Man(a1-6)[GlcNAc(b1-4)][GlcNAc(b1-2)Man(a1-3)]Man(b1-4)GlcNAc(b1-4)GlcNAc
# Summary of the method: as §1
# GlcNAc(b1-3)Fuc = target: GlcNAc(b1-3)Fuc
# Summary of the method: as §1
# GlcNAc(b1-3)Gal = target: GlcNAc(b1-3)Gal
# Summary of the method: as §1
# [24] = target: GlcNAc(b1-3)Gal(b1-3)GalNAc
# Summary of the method: as §1
# GlcNAc(b1-3)Gal(b1-4)Glc = target: GlcNAc(b1-3)Gal(b1-4)Glc
# Summary of the method: as §1
# [25] = target: GlcNAc(b1-3)Gal(b1-4)GlcNAc
# Summary of the method: as §1
# [26] = target: GlcNAc(b1-3)Gal(b1-4)GlcNAc(b1-2)Man(a1-3)[GlcNAc(b1-3)Gal(b1-4)GlcNAc(b1-2)Man(a1-6)]Man(b1-4)GlcNAc(b1-4)GlcNAc
# Summary of the method: as §1
# [27] = target: GlcNAc(b1-3)Gal(b1-4)GlcNAc(b1-2)Man(a1-3)[GlcNAc(b1-3)Gal(b1-4)GlcNAc(b1-2)Man(a1-6)]Man(b1-4)GlcNAc(b1-4)[Fuc(a1-6)]GlcNAc
# Summary of the method: as §1
# [28] = target: GlcNAc(b1-3)Gal(b1-4)GlcNAc(b1-2)[GlcNAc(b1-3)Gal(b1-4)GlcNAc(b1-6)]Man(a1-6)[GlcNAc(b1-3)Gal(b1-4)GlcNAc(b1-2)Man(a1-3)]Man(b1-4)GlcNAc(b1-4)GlcNAc
# Summary of the method: as §1
# [29] = target: GlcNAc(b1-3)Gal(b1-4)GlcNAc(b1-3)Gal(b1-4)GlcNAc
# Summary of the method: as §1
# [30] = target: GlcNAc(b1-3)Gal(b1-4)GlcNAc(b1-3)Gal(b1-4)GlcNAc(b1-2)Man(a1-3)[GlcNAc(b1-3)Gal(b1-4)GlcNAc(b1-3)Gal(b1-4)GlcNAc(b1-2)Man(a1-6)]Man(b1-4)GlcNAc(b1-4)GlcNAc
# Summary of the method: as §1
# [31] = target: GlcNAc(b1-3)Gal(b1-4)GlcNAc(b1-3)Gal(b1-4)GlcNAc(b1-2)Man(a1-3)[GlcNAc(b1-3)Gal(b1-4)GlcNAc(b1-3)Gal(b1-4)GlcNAc(b1-2)Man(a1-6)]Man(b1-4)GlcNAc(b1-4)[Fuc(a1-6)]GlcNAc
# Summary of the method: as §1
binder,measurement,setting,value
B1,glycan array binding signal (z-score),GlcA(b1-3)Gal,-0.496
same,glycan array binding signal (z-score),GlcA(b1-3)GlcNAc,1.42
same,glycan array binding signal (z-score),GlcA(b1-6)Gal,-0.332
same,glycan array binding signal (z-score),[1],-0.588
same,glycan array binding signal (z-score),[2],-0.508
same,glycan array binding signal (z-score),[3],-0.273
same,glycan array binding signal (z-score),[4],-0.005
same,glycan array binding signal (z-score),[5],-0.474
same,glycan array binding signal (z-score),[6],-0.534
same,glycan array binding signal (z-score),[7],-0.576
same,glycan array binding signal (z-score),[8],-0.575
same,glycan array binding signal (z-score),[9],-0.411
same,glycan array binding signal (z-score),[10],-0.412
same,glycan array binding signal (z-score),[11],-0.273
same,glycan array binding signal (z-score),[12],-0.097
same,glycan array binding signal (z-score),[13],-0.282
same,glycan array binding signal (z-score),[14],-0.143
same,glycan array binding signal (z-score),[15],0.509
same,glycan array binding signal (z-score),[16],-0.388
same,glycan array binding signal (z-score),[17],-0.39
same,glycan array binding signal (z-score),[18],-0.426
same,glycan array binding signal (z-score),[19],-0.401
same,glycan array binding signal (z-score),[20],-0.563
same,glycan array binding signal (z-score),[21],-0.46
same,glycan array binding signal (z-score),[22],0.031
same,glycan array binding signal (z-score),[23],-0.539
same,glycan array binding signal (z-score),GlcNAc(b1-3)Fuc,0.816
same,glycan array binding signal (z-score),GlcNAc(b1-3)Gal,-0.368
same,glycan array binding signal (z-score),[24],-0.465
same,glycan array binding signal (z-score),GlcNAc(b1-3)Gal(b1-4)Glc,-0.469
same,glycan array binding signal (z-score),[25],-0.404
same,glycan array binding signal (z-score),[26],0.946
same,glycan array binding signal (z-score),[27],0.297
same,glycan array binding signal (z-score),[28],0.851
same,glycan array binding signal (z-score),[29],0.298
same,glycan array binding signal (z-score),[30],1.15
same,glycan array binding signal (z-score),[31],1.21
